Values joined by “and” are separate entries in the source; they are usually repeats but may differ in a detail not shown here. Equal values may be shown once. Inconclusive means that the source gave no clear call. Such entries were picked first, then a sample of the others. Active and inactive are the calls of the source. Calls come from the whole dose curve; as a rule, active = well fitted curve in either direction with a large enough effect (not every such curve was filed as active); inconclusive = small, poorly fitted or top-dose-only effect, or another doubt; inactive = flat fitted curve, though single readings scatter.
Assay: NFAT Signaling Pathway (AID 444);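 note: carbachol stimulus at about its EC50 of 1 µM final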
Conditions: Jurkat NFAT-bla M1, carbachol, beta-lactamase ratio, 5 h; at 17.2 µM (top of the series)
Method in brief: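 Jurkat cells carrying an NFAT-driven β-lactamase reporter and co-transfected muscarinic M1 receptor were treated with compound plus carbachol (1 uM final, an EC50 level) for 5 h at 37 °C. CCF4 loading followed for 1 h at RT; 460/530 nm ratio gave %activity.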
% is set by controls: 0 for no effect and ±100 for the full control effect.

| Structure (SMILES) | activity change, negative = inhibition |
| --- | --- |
| CN(C)CCOC(c1ccccc1)c1ccccc1 | inconclusive: -61.1% [inhibitor] and inconclusive: -70% [inhibitor] |
| Cc1cnc(C(=O)NCCc2ccc(S(=O)(=O)NC(=O)NC3CCCCC3)cc2)cn1 | inactive: -11% and inactive: -0.964% |
| CN1CCN(CCCN2c3ccccc3Sc3ccc(Cl)cc32)CC1 | inconclusive: -45.8% [inhibitor] |
| CN(C)C(=O)C(CCN1CCC(O)(c2ccc(Cl)cc2)CC1)(c1ccccc1)c1ccccc1 | inactive: -23.1% |
| CNCCCC12CCC(c3ccccc31)c1ccccc12 | inconclusive: -45.4% [inhibitor] and inconclusive: -79.7% [inhibitor] |
| CCOC(=O)c1ccc(OC(=O)CCCCCN=C(N)N)cc1 | inconclusive: -51.2% [inhibitor] |
| OCCN1CCN(CCCN2c3ccccc3Sc3ccc(C(F)(F)F)cc32)CC1 | inconclusive: -35.2% [inhibitor] and inconclusive: -41.8% [inhibitor] |
| Cc1nc2n(c(=O)c1CCN1CCC(c3noc4cc(F)ccc34)CC1)CCCC2 | inconclusive: -37.3% [inhibitor] |
| NS(=O)(=O)c1cc2c(cc1Cl)NCNS2(=O)=O | inactive: 3.92% and inactive: 9.7% |
| CCCNCC(O)COc1ccccc1C(=O)CCc1ccccc1 (configuration not stated) | inconclusive: -66.3% [inhibitor] |
| COCCCCC(=NOCCN)c1ccc(C(F)(F)F)cc1 | inactive: -5.16% |

Same assay, conditions: Jurkat NFAT-bla M1, carbachol, beta-lactamase ratio, 5 h; at 38 µM (top of the series)

| Structure (SMILES) | activity change, negative = inhibition |
| --- | --- |
| CN(C)CCOC(c1ccccc1)c1ccccc1 | inconclusive: -66.9% [inhibitor] |
| Cc1cnc(C(=O)NCCc2ccc(S(=O)(=O)NC(=O)NC3CCCCC3)cc2)cn1 | inactive: -4.17% |
| Oc1ccc(-c2nc(-c3ccc(F)cc3)c(-c3ccncc3)[nH]2)cc1 | inconclusive: -50% [inhibitor] |
| CN1CCN(CCCN2c3ccccc3Sc3ccc(Cl)cc32)CC1 | inconclusive: -79% [inhibitor] |
| CN(C)C(=O)C(CCN1CCC(O)(c2ccc(Cl)cc2)CC1)(c1ccccc1)c1ccccc1 | inactive: -13.2% |
| CNCCCC12CCC(c3ccccc31)c1ccccc12 | inconclusive: -64.5% [inhibitor] |
| OCCN1CCN(CCCN2c3ccccc3Sc3ccc(C(F)(F)F)cc32)CC1 | inconclusive: -46.9% [inhibitor] |
| Cc1nc2n(c(=O)c1CCN1CCC(c3noc4cc(F)ccc34)CC1)CCCC2 | inconclusive: -33.3% [inhibitor] |
| NCCS(=O)(=O)O | inactive: 3.83% |
| NS(=O)(=O)c1cc2c(cc1Cl)NCNS2(=O)=O | inactive: 0.292% |
| COCCCCC(=NOCCN)c1ccc(C(F)(F)F)cc1 | inactive: 29% |
